Laboratory results: PubChem BioAssay AID1159614 (National Center for Advancing Translational Sciences (NCATS), 2016)
Out of some 45,000 compounds screened, about 65 (0.1%) were called active. Calls follow the shape of the dose curve; as a rule, active = well fitted activation curve with a large enough effect; inconclusive = small, poorly fitted or top-dose-only effect; inactive = no such curve, though single readings can be large or run the other way. The list shows a part of the results.

molecular target: Galactocerebrosidase (Homo sapiens) (UniProt P54803); test: A Novel Cell-Based Assay to Identify Small Molecules for B -Galactocerebrosidase; conditions: 145M-Twi-hGALC-G270D cells, HMU-beta-Gal fluorescence, 48 h; series mostly up to 57.5 µM; activation: at the top concentration; also: 0% is about no effect; nearly all actives have a fitted effect of over 65% in size
Chain of UniProt P54803 (P54803 whole entry, looked up): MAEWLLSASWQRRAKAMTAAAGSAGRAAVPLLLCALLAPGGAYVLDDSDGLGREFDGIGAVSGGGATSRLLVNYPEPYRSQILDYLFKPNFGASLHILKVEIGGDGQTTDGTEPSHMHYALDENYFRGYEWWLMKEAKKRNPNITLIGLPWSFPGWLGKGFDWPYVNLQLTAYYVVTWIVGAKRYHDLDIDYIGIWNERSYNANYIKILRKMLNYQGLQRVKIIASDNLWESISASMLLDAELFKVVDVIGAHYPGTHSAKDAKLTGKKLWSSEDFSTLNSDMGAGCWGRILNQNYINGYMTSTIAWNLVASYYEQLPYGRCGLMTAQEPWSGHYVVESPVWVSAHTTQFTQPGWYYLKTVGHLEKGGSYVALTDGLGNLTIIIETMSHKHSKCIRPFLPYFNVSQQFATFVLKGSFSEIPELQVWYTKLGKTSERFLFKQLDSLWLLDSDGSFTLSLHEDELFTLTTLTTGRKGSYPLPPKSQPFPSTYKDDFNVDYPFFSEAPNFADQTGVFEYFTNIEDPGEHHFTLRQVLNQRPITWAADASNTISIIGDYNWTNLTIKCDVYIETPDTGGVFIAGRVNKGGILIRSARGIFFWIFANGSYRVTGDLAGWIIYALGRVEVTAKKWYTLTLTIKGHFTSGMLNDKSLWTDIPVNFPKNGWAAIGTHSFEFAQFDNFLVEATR
How it was run: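 qHTS, 1536-well; 145M-Twi-hGALC-G270D cells (WT line also made) in DMEM/F12 + 10% FBS; compound incubation on live cells; HMU-β-gal 0.1 mM final, pH 5.2, NaTC; carbonate stop; fluorescence increase = enhanced residual activity.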

activation, inactive:
COc1ccc(CNC(=O)Cc2c(C(=O)O)c(C)cn2C)cc1 -9.91%, Clc1ccc(CN2CCN(c3ncnc4sc5c(c34)CCCC5)CC2)cc1Cl -25.7%, O=C(Cn1cc(C(=O)C2CCCCC2)c2ccccc21)Nc1ccccc1Cl -15.7%, C/C=C(/C(=C/C)c1ccc(O)cc1)c1ccc(O)cc1 -11.2%, Cc1cc(C)cc(OCCSc2nc3ccc(NC(=O)c4cccs4)cc3s2)c1 -29.2%, CCOc1ccc(C(=O)Nc2c(C(=O)Nc3ccccc3OC)oc3ccccc23)cc1OCC -8.85%, Cc1c(-c2ccccc2)c(=O)oc2ccc(OC(=O)N3CCOCC3)cc12 -18.4%, O=C(CSc1n[nH]c(-c2ccccc2Cl)n1)NCCCc1ccccc1 -13.6%, COc1cc(-c2cc(OC)c3c(C)oc(C)c3c(=O)c2)ccc1OC(=O)c1ccc(C)cc1 -12.8%, CCOc1ccc(NC(=O)CSC2=Nc3ccccc3C3=NC(CC(=O)NCc4cccs4)C(=O)N23)cc1 (stereo not drawn) -18.5%, CC(=O)c1cccc(NC(=O)C2CCN(c3ncnc4c3nc3n4CCCCC3)CC2)c1 5.5%, O=C(O)c1ccccc1OP(=O)(O)O -12.9%, O=C1c2ccccc2-c2onc3c(N4CCN(C5CCCCC5)CC4)cc(NCCO)c1c23 -13.6%, Cc1ccc(-c2cn3c(n2)sc2cc(C(=O)NCCCN4CCCCCC4)ccc23)cc1 -9.84%, CC(CCc1ccccc1)NC(=O)Cn1c(=O)nc(-c2ccccc2)c2cc(Cl)ccc21 (stereo not drawn) -10.5%, CCc1ccc2oc(C(=O)N(Cc3ccc(N(C)C)cc3)Cc3ccco3)c(C)c2c1 -20.9%, CC1=C(c2ccc(C)c(C)c2)S(=O)(=O)N=C1N1CCC(C(=O)NC(C)c2ccccc2)CC1 (stereo not drawn) -1.01%, Cc1nc2ccccn2c(=O)c1NC(=O)c1cccc(F)c1 -1.07%, COc1ccc(NC(=O)/C=C\C(=O)N(c2ccc(C(C)C)cc2)C(C(=O)NCc2ccco2)c2ccc(C)cc2)cc1 (stereo not drawn) -20.3%, COc1cccc(Nc2nc3cc(C)ccc3nc2NS(=O)(=O)c2ccc(Cl)cc2)c1 -16.5%, COC(=O)c1ccccc1NC(=O)Cn1cnc2sc(C)c(S(=O)(=O)N3CCC(C)CC3)c2c1=O -23.6%, CCOC(=O)c1cccc(NC(=O)c2ncoc2-c2ccco2)c1 -0.0082%, Cc1cc(OCC(=O)NCCc2nc3ccccc3[nH]2)cc(C)c1Cl -3.43%, Cc1ccc(CNC(=O)Cn2c(SCC(=O)Nc3ccc(F)cc3)nc3ccccc32)cc1 -13.5%, COc1cccc(C(=O)NCCc2csc3nc(-c4ccccc4F)nn23)c1OC -11.3%, Cc1ccccc1N(C)S(=O)(=O)c1nnc(NC(=O)c2ccco2)s1 -11.2%, CCOC(=O)c1cc(-c2ccc(OC)cc2)n(CCC(=O)NCCc2ccccc2)c1C -6.56%, COc1ccc(CCNC(=O)c2ccc3c(c2)sc2nc(-c4ccccc4)cn23)cc1OC -17.8%, Cc1ccc(NC(=O)C2(C)Cc3ccccc3C(=O)O2)c(C)c1 (stereo not drawn) -7.92%, Cc1ccc(S(=O)(=O)C(CNC(=O)c2c(F)cccc2F)c2ccco2)cc1 (stereo not drawn) 1.63%, Cc1ccc(CNC(=O)C(C)n2c(=O)cc(C(F)(F)F)c3c(C)nn(C)c32)cc1 (stereo not drawn) -37.1%, Cc1cccc(C(=O)N2CCc3cc(CNC(=O)c4cc5ccccc5[nH]4)ccc32)c1 -21%, CCn1nc(C)c(CCN(C)C(=O)Nc2cccc(Cl)c2C)c1C -1.61%, O=S(=O)(c1ccccc1)c1nc(-c2ccccc2Cl)oc1N1CCCCCC1 -7.32%, Cc1cc(C)c(S(=O)(=O)NCCS(=O)(=O)N2CCN(c3ccccc3)CC2)c(C)c1 -12.1%, Cc1ccccc1-c1nc2scc(CCNC(=O)c3ccco3)n2n1 -0.797%, COc1cccc(NC(=O)C2CCC(CNS(=O)(=O)c3ccc4c(c3)CCCC(=O)N4)CC2)c1 (stereo not drawn) -12.1%, CCn1cc(CNC(=O)c2cc(-c3ccc(C)cc3)nc3ccc(Br)cc23)c(C)n1 7.41%, COc1cccc(NC(=O)C2CCN(c3ccc(Sc4ccc(C)cc4)nn3)CC2)c1 4.29%, O=C(NCc1ccccc1)C(=O)Nc1c2c(nn1-c1ccc(F)cc1)CSC2 -14%, COc1ccc(NC(=O)CN2C(=O)COc3ccc(S(=O)(=O)N4CCOCC4)cc32)cc1 27.8%, CCOc1ccc(CCNC(=O)C2CCCN(S(=O)(=O)N(C)c3ccc(F)cc3)C2)cc1 (stereo not drawn) -10.8%, CCS(=O)(=O)N1CCc2cc(C(=O)NCc3ccccc3OC)ccc21 -14.8%, Cc1cccc(OCCSc2nnc(-c3cccs3)o2)c1 3.1%, Cc1ccc2nc(/C(C#N)=C/c3ccccc3F)[nH]c2c1 5.14%, Cc1sc2ncn(CC(=O)N3CCN(c4ccccc4F)CC3)c(=O)c2c1S(=O)(=O)N1CCC(C)CC1 -13%, O=C(CSc1nc(=O)n(Cc2ccco2)c2c1CCC2)NCc1ccccc1 -1.37%, Clc1ccccc1OCCSc1nnc(-c2cccs2)o1 -5.86%, CCc1ccc2oc(-c3ccc(C)c(NC(=O)/C=C/c4ccco4)c3)nc2c1 -9.57%, COc1ccccc1CNC(=O)C1CCN(c2nc3ccc(C)cc3[nH]2)CC1 3.34%, COc1ccc(Cl)cc1-n1cc(-c2ccccc2)nc1SCC(=O)Nc1ccc(C)cc1 -12.3%, O=C(NC1CCCC1)c1ccc2c(=O)n(Cc3ccccc3)c(SCc3ccccc3F)nc2c1 -8.84%, CCC(Cn1nnc2ccccc2c1=O)NC(=O)Nc1ccccc1OC (stereo not drawn) -15.7%, COc1ccc(-c2cc(-c3ccc(C)cc3)nc3c2COc2ccccc2-3)cc1 -12.3%, Cc1ccc(S(=O)(=O)c2nc(-c3ccc(F)cc3)oc2SCC(=O)NC2CCCCC2)cc1 -32.2%, CCOc1ccc(CCNC(=O)c2cc3c(-c4ccccc4F)nn(C)c3s2)cc1 -13.5%, CCc1ccc(CNC(=O)CCCn2ccc3cc(S(=O)(=O)N4CCCC4)ccc32)cc1 17.6%, CCOC(=O)Cn1c(=N)n(Cc2ccc(C(C)(C)C)cc2)c2ccccc21 -1.63%, COc1ccc(C(=O)n2nc(N)c3cc4ccc(C)cc4nc32)cc1OC -14.8%, COCCNC(=O)CCCn1c(SCC(=O)Nc2ccc(F)cc2)nc2c(sc3ccccc32)c1=O -10.2%, Cc1nc2cc(-c3ccccc3)nn2c(C)c1CCC(=O)N1CCN(c2ccc(F)cc2)CC1 -10.7%, COC(=O)c1cc2oc(C)cc2n1Cc1ccccc1Cl -10.5%, Cc1ccc(CN2C(=O)C(O)(c3c(C)[nH]c4ccccc34)c3ccccc32)cc1 (stereo not drawn) -3.34%, COc1ccc(NC(=O)C2CCC(CNS(=O)(=O)c3cccc4nsnc34)CC2)cc1OC (stereo not drawn) -11.7%, Cc1cc2nc(-c3ccc(OCc4ccccc4C)cc3)cc(C(F)(F)F)n2n1 -8%, COc1cc(C2CC(=O)N(Cc3cccc(F)c3)c3ccccc3S2)cc(OC)c1OC (stereo not drawn) 12.3%, Cc1cc(C)cc(-n2ccnc2SCC(=O)Nc2cccc3ccccc23)c1 -28.1%, COc1ccccc1C1NC(=O)c2n[nH]c(-c3cccs3)c21 (stereo not drawn) -3.87%, CC1CCN(C(=O)c2c(NC(=O)c3ccccc3Cl)sc3c2CCC(C(C)(C)C)C3)CC1 (stereo not drawn) -17.1%, CCN(C(=O)Cn1c(C(=O)OC)cc2sc(Cl)cc21)c1cccc(C)c1 -7.06%, CCc1ccc(S(=O)(=O)c2cn(CC(=O)Nc3ccc(F)c(Cl)c3)c3ccccc3c2=O)cc1 -11.2%, COc1ccc([N+](=O)[O-])cc1NC(c1nnc(-c2ccccc2)o1)c1ccccc1F (stereo not drawn) -5.13%, CNC(=O)C1CCC(Cn2c(=O)c3sccc3n(Cc3cc(C)ccc3C)c2=O)CC1 (stereo not drawn) -5.71%, Cc1ccccc1-c1nc(CN2CCCC(C(=O)NCc3ccc(Cl)cc3)C2)c(C)o1 (stereo not drawn) -29.3%, COc1ccc(N2C(=O)NC(NS(=O)(=O)c3ccc(Cl)cc3)(C(F)(F)F)C2=O)cc1 (stereo not drawn) -10.6%, NC(CS)C(=O)O (stereo not drawn) -14.8%, Cc1ccc2nc(CN3CCN(C(=O)Nc4ccc(F)cc4)CC3)oc2c1 -4.13%, CSc1nc(NCCOC(C)=O)c(C#N)c(-c2ccc(C(C)(C)C)cc2)n1 -6.9%, COc1ccc(C2C(=O)N(C3CCCCC3)CC(=O)N2CCc2ccc(C)cc2)cc1OC (stereo not drawn) -3.41%, CCOC(=O)c1c(NC(=O)c2cc(-c3ccccc3OC)on2)sc(C)c1C -2.66%, CCc1ccccc1NC(=O)Cn1nc2c3cc(F)ccc3n(Cc3cccc(C)c3)cc-2c1=O 2.2%, COc1ccc(NC(=O)CCc2c(C)nc3c(c2C)c(=O)n(C)c(=O)n3C)c(OC)c1 12.1%, O=C(COc1ccccc1F)Nc1ccc2nc(SCC(=O)N3CCc4ccccc43)sc2c1 -21.9%, COc1ccc(-c2nc3nc(C)cc(C)n3c2Nc2c(C)cccc2C)cc1 -19.7%, COc1ccccc1CNC(=O)C1(c2cccs2)CCOCC1 -15.6%, CCc1ccc2oc(C(=O)NCC(c3ccc(OC)cc3)N3CCCCC3)c(C)c2c1 (stereo not drawn) -25.6%, CCOc1ccc(-c2cn3c(n2)sc2cc(C(=O)NCCCN4CCCCCC4)ccc23)cc1 -14%, CC1=C(C(=O)Nc2cccnc2)C(c2ccc(F)cc2)n2nc(-c3cccc(C)c3)nc2N1 (stereo not drawn) -8.35%, Cc1cc(C)c2nc(N(Cc3cccnc3)C(=O)CCS(=O)(=O)c3ccccc3)sc2c1 -11.3%, Cc1cc(NC(=O)C2CCN(S(=O)(=O)c3c(C)noc3C)CC2)ccc1Br -11.1%, Cc1cccc(-n2ccnc2SCC(=O)Nc2cccc3ccccc23)c1 -41.7%, CCc1ccc(OCC(=O)Nc2ccc3c(c2)c2ccccc2n3CC)cc1 -8.51%, N#Cc1c[nH]n2c(NC3CCCCC3)c(-c3ccc(F)cc3)nc12 -12.7%, Oc1ccccc1-c1nc(-c2cccs2)c(-c2cccs2)[nH]1 -13.4%, O=C(COc1ccccc1Cl)Nc1ccc(OCc2cc(=O)n3ccsc3n2)cc1 -6.87%, Cc1cc(C)cc(OCCSc2nc3ccc(NC(=O)c4ccc5c(c4)OCO5)cc3s2)c1 16.5%, CCc1ccc2[nH]cc(S(=O)(=O)c3ccc(C(C)C)cc3)c(=O)c2c1 -13.3%, CCOC(=O)C1CCCN(S(=O)(=O)c2cc(-c3cc(C)no3)ccc2OC)C1 (stereo not drawn) -20.5%
